Assay results published in PubChem BioAssay AID504339 (National Center for Advancing Translational Sciences (NCATS), 2011).
In all, about 390,000 compounds went through this assay and about 17,000 (4.4%) were called active. The shares of active, inactive and inconclusive entries below differ from those in the screen. Calls come from the whole dose curve; as a rule, active = well fitted inhibition curve with a large enough effect; inconclusive = small, poorly fitted or top-dose-only effect; inactive = no such curve, though single readings can be large or run the other way. Potencies of inconclusive entries are doubtful fits and often do not repeat.

target: Lysine-specific demethylase 4A (Homo sapiens) (UniProt O75164); assay: qHTS Assay for Inhibitors of JMJD2A-Tudor Domain; conditions: AlphaScreen JMJD2A-Tudor / H3K4me3 peptide binding; activity change, negative = inhibition: at 114 µM (top of the series); note: nearly all actives have a fitted effect of over 50% in size
% is set by controls: 0 for no effect and ±100 for the full control effect; potency is the fitted concentration of half-maximal effect; tags give direction and shape of the fitted curve.

UniProt O75164, sequence (O75164 whole entry, looked up, the tested form may be a part): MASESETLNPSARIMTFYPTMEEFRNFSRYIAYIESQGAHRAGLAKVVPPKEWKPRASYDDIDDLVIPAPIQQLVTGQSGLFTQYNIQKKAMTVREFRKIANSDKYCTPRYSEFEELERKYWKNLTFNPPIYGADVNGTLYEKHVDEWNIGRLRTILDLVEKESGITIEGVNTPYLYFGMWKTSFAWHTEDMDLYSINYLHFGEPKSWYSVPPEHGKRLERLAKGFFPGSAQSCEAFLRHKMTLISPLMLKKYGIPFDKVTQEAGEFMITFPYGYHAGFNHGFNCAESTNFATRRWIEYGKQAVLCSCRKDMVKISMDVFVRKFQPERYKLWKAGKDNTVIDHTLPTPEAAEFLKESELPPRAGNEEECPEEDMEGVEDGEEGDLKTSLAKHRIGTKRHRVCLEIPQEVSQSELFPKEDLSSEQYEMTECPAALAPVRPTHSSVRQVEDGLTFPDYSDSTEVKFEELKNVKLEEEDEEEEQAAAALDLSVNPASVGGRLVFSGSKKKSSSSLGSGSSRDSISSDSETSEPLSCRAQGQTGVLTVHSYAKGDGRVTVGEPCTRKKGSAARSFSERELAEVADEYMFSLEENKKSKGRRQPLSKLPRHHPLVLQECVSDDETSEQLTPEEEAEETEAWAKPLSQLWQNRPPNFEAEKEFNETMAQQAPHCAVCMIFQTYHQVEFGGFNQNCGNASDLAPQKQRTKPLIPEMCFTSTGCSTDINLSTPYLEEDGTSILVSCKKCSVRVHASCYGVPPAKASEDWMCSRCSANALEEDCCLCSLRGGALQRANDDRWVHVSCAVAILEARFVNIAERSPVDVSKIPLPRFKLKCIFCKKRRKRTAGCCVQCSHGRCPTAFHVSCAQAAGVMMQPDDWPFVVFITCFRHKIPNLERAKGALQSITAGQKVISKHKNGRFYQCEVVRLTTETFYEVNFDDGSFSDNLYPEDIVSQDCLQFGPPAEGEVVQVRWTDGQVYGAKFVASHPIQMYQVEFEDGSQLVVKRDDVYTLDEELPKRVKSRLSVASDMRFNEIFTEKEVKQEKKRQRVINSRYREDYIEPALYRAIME

Potency, inconclusive:
CC/C(=C/c1sc2ccc(C)cc2[n+]1CCO)SC 79.4 µM [inhibitor, partial curve]
CC(=O)c1ccc(S(=O)(=O)Nc2ccc(-c3cn4c(n3)SCC4)cc2)cc1 20 µM [inhibitor, single point]
CN1/C(=C\C=N\NC(=O)c2cccnc2)C(C)(C)c2ccccc21 56.2 µM [inhibitor, partial curve]
COc1c(Br)cc(Br)cc1C(=O)O 89.1 µM [inhibitor, partial curve]
O=[N+]([O-])c1ccccc1OCCCNCc1ccccc1 3.16 µM [inhibitor, full curve, poor fit]
CCCCN1C(=O)c2[nH]nc(-c3ccccc3O)c2C1c1cccc(OCc2ccccc2)c1 (stereo not given) 14.1 µM [inhibitor, full curve]
CC(=O)NC(Cc1c[nH]c2ccccc12)C(=O)OCC(=O)N1CCN(S(=O)(=O)c2ccc(Cl)cc2)CC1 (stereo not given) 112 µM [inhibitor, partial curve, poor fit]
O=[N+]([O-])c1cc([N+](=O)[O-])c(Oc2cc(F)cc(F)c2)cc1NN1CCCCC1 15.8 µM [inhibitor, full curve]
Clc1cccc(N2CCN(c3ncnc4c3nc3n4CCCCC3)CC2)c1 70.8 µM [inhibitor, partial curve, poor fit]
COc1ccccc1C(=O)NC(=S)N1CCCc2ccccc21 56.2 µM [inhibitor, partial curve]
Cc1ccc(S(=O)(=O)N(C)/N=C2/C(=O)N(CC(=O)O)c3ccccc32)cc1 25.1 µM [inhibitor, single point]
CCOC(=O)C(Cc1ccccc1)NC(=O)CCc1nnc2ccc(N3CCCC3)nn12 (stereo not given) 15.8 µM [inhibitor, partial curve, poor fit]
COc1ccccc1C1C=C(c2ccc(F)cc2)Nc2nc(-c3ccc(Cl)cc3)nn21 (stereo not given) 44.7 µM [inhibitor, partial curve, poor fit]
S=c1[nH]nc(-c2c[nH]c3ccccc23)o1 22.4 µM [inhibitor, full curve, poor fit]
Cc1nc(C)c(-c2csc(Nc3ccc(F)cc3)n2)s1 56.2 µM [inhibitor, partial curve]
CNC(=S)N1CCc2cc(OC)c(OC)cc2C1COc1ccc(F)cc1 (stereo not given) 100 µM [inhibitor, single point]
Cc1ccc(C(=O)Nc2ccc(Nc3ccccc3)cc2)cc1C 39.8 µM [inhibitor, partial curve]
CC(=O)N1CCN(S(=O)(=O)c2ccc(C)cc2)C1c1ccc(N(C)C)cc1 (stereo not given) 63.1 µM [inhibitor, partial curve]
CC(C)(C)SCCNS(=O)(=O)c1ccccc1 89.1 µM [inhibitor, single point]
CCOC(=O)C1Nc2c(cc(C(F)(F)F)cc2[N+](=O)[O-])C2c3ccccc3CC12 (stereo not given) 22.4 µM [inhibitor, partial curve]
COc1ccc(N2CCN(C(=O)CN(c3cccc(OC)c3)S(=O)(=O)c3ccccc3)CC2)cc1 39.8 µM [inhibitor, partial curve]
Cc1ccc(Cl)c2c1N[C@@H](c1ccc(C(=O)O)cc1)[C@H]1CC=C[C@@H]21 22.4 µM [inhibitor, full curve]
CCN(CC)c1nc(Nc2ccc([N+](=O)[O-])cc2)nc(N(CC)CC)n1 20 µM [inhibitor, full curve]
Cc1cc2c3c(c1)C1(C(=O)N3C(C)(C)CC2C)C(C#N)=C(N)Oc2cc(O)ccc21 (stereo not given) 39.8 µM [inhibitor, partial curve]
CCOc1ccc(-c2nc(CSCC(=O)N3CCN(c4cccc(C(F)(F)F)c4)CC3)c(C)o2)cc1 56.2 µM [inhibitor, partial curve]
CCOc1ccc(CCN2C(=S)N([C@@H](Cc3ccc(O)cc3)CN3CCCC3CN3C(=S)NC[C@@H]3Cc3ccc(O)cc3)C[C@@H]2CC(C)C)cc1 (stereo not given in full) 3.55 µM [inhibitor, full curve, poor fit]

Potency, active:
COc1ccc(N2CCN(CC(O)COC(c3ccc(F)cc3)c3ccc(F)cc3)CC2)cc1 (stereo not given) 3.55 µM
COc1ccc(N2CCN(Cc3nc(N)nc(Nc4ccccc4OC)n3)CC2)cc1 56.2 µM
CC(=O)c1cc(O)c2ccccc2c1O 56.2 µM
COc1ccc2c(CCNC(N)=S)c[nH]c2c1 20 µM
C=CCn1c(CNS(=O)(=O)c2ccc(Br)cc2)n[nH]c1=S 28.2 µM
COc1ccccc1CN(C)CC(=O)Nc1cccc(S(=O)(=O)N2CCCC2)c1 0.794 µM
C=CCNCCCCOc1ccc(Br)cc1C 2.51 µM

Activity change, negative = inhibition, inactive:
Cc1oc2c(c(C)cc3oc(=O)c(CC(=O)NCCc4ccccc4F)c(C)c32)c1C -9.12%
CN1C(C(=O)NCc2cccc(C(F)(F)F)c2)CC2Cn3c(nc4ccccc43)C21 (stereo not given) -16.8%
COc1ccc(N2CC(C(=O)Nc3nnc(SCC(=O)NC(C)(C)C)s3)CC2=O)cc1 (stereo not given) -0.34%
Cc1nc(-c2ccc(Cl)cc2)sc1CCNC(=O)C(=O)Nc1ccc(F)cc1F 0.32%
Cc1ccccc1NC(=O)c1ccc(F)c(S(=O)(=O)N(C)Cc2ccccc2)c1 -22.3%
Cc1ccc(-c2nnc3ccc(SCC(=O)OCc4ccccc4)nn23)cc1 12.3% [at 57.1 µM]
CCc1ccc2[nH]c(=O)c(CN(Cc3ccccc3)Cc3nnnn3C(C)(C)C)cc2c1 -26.9% [at 57.1 µM]
Cc1ccc2[nH]c(=O)c3cc(C(=O)N4CCN(c5ccccc5)CC4)sc3c2c1 -8.19%
CCOC(=O)c1ccc(Nc2cc(C)nc(C)c2C(=O)OCC)cc1 4.45%
Cc1ccc(CC(NC(=O)C2CCCCC2)C(=O)O)cc1 (stereo not given) -19.2%
COc1ccc(-c2cc(C(=O)NCc3cc(OC)c(OC)c(OC)c3)[nH]n2)cc1 9.66%
O=C(CSc1ncc(S(=O)(=O)c2ccc(Br)cc2)c(=O)[nH]1)NCc1ccc(Cl)cc1 -2.39%
